27 compounds from the antibiotic and cytotoxicity screens of Wong et al. (2023) can be followed below.

The subject of test [1] is HSkMC (human skeletal muscle cells). In words: cytotoxicity call (relative viability < 0.9). The settings on record: 10 µM.
Test [2] deals with HepG2. In words: cytotoxicity call (relative viability < 0.9). The settings on record: 10 µM.
In test [3] the test system is S. aureus RN4220. Description: growth inhibition call (relative growth <= 0.2). The settings on record: 50 µM.

Molecules are shown by their SMILES. The list shows a part of the results.

Turning to `CC#N`, the cytotoxicity call in test [1] and in test [2] was “inactive” in each case. Further, the growth inhibition call in test [3] is “inactive”.
Regarding `C[C@H]1CN([C@@H](C)CO)C(=O)Cc2cc(NC(=O)Nc3ccc(F)cc3)ccc2O[C@@H]1CN(C)Cc1ccc(-c2ccccc2)cc1`, the cytotoxicity call in test [1] was “inactive”. The cytotoxicity call in test [2] was “active”. Further, in test [3], the growth inhibition call is “inactive”.
`COc1ccc([C@@H]2C/C=C\C[C@@H](c3cccc(Cl)c3)NC(=O)[C@@H](c3ccccc3)CC(=O)N2)c(OC)c1`: the cytotoxicity call in test [1] and in test [2] was “inactive” throughout. In test [3], the growth inhibition call was “inactive”.
Regarding `Cc1noc(C)c1S(=O)(=O)Nc1cccc2c1O[C@H](CN(C)S(=O)(=O)c1ccc(F)cc1)[C@H](C)CN([C@@H](C)CO)C2=O`, the cytotoxicity call in test [1] and in test [2] was “inactive” in each case. In addition, in test [3], the growth inhibition call is “inactive”.
Take `N[C@H](Cc1cc(I)c(Oc2ccc(O)c(I)c2)c(I)c1)C(=O)O`: the cytotoxicity call in test [1] and in test [2] was “inactive” throughout. Also, the growth inhibition call in test [3] is “inactive”.
Regarding `Nc1ccc(S(=O)(=O)Nc2ccnn2-c2ccccc2)cc1`, the cytotoxicity call in test [1] and in test [2] was “inactive” throughout. The growth inhibition call in test [3] is “inactive”.
As for `Cc1noc(C)c1NC(=O)N(C)C[C@@H]1Oc2ncc(Br)cc2C(=O)N([C@@H](C)CO)C[C@@H]1C`, the cytotoxicity call in test [1] and in test [2] was “inactive” throughout. Moreover, the growth inhibition call in test [3] is “inactive”.
As for `C[C@H]1CN([C@@H](C)CO)C(=O)c2cc(C#CCN(C)C)cnc2O[C@@H]1CN(C)S(=O)(=O)c1ccccc1`, the cytotoxicity call in test [1] and in test [2] was “inactive” in each case. For the same compound, in test [3], the growth inhibition call is “inactive”.
As to `O=S(=O)(c1cccc2cnccc12)N1CCCNCC1`, in test [1], the cytotoxicity call is “inactive”. For the same compound, in test [2], the cytotoxicity call was “active”. The growth inhibition call in test [3] was “inactive”.
With `C[C@@H]1CN([C@H](C)CO)C(=O)Cc2cc(NC(=O)Cc3ccccc3)ccc2O[C@H]1CN(C)S(C)(=O)=O`, the cytotoxicity call in test [1] and in test [2] was “inactive” in each case. The growth inhibition call in test [3] is “inactive”.
As for `C[C@@H]1CN([C@@H](C)CO)C(=O)c2cccc(NS(=O)(=O)c3cccs3)c2O[C@@H]1CN(C)CC1CC1`, the cytotoxicity call in test [1] and in test [2] was “inactive” throughout. Besides, the growth inhibition call in test [3] is “inactive”.
As for `CCS(=O)(=O)Nc1ccc2c(c1)C(=O)N(C)[C@H]1CC[C@H](CC(=O)NCCOC)O[C@H]1CO2`, the cytotoxicity call in test [1] and in test [2] was “inactive” each time. Further, the growth inhibition call in test [3] is “inactive”.
For `O=C(C[C@@H]1C[C@H]2c3cc(NS(=O)(=O)c4ccc(F)cc4)ccc3O[C@H]2[C@@H](CO)O1)NCCN1CCCCC1`, the cytotoxicity call in test [1] and in test [2] was “inactive” in each case. The growth inhibition call in test [3] was “inactive”.
With `C[C@@H]1CN([C@H](C)CO)C(=O)CCCn2nncc2CO[C@H]1CN(C)S(=O)(=O)c1ccc2ccccc2c1`, the cytotoxicity call in test [1] and in test [2] was “inactive” each time. In test [3], the growth inhibition call is “inactive”.
For the compound `O=C([C@@H]1[C@@H](CO)[C@@H]2Cn3c(cccc3=O)[C@H]1N2CC1CCCC1)N1CCOCC1`, the cytotoxicity call in test [1] and in test [2] was “inactive” in each case. Besides, the growth inhibition call in test [3] is “inactive”.
In the case of `C/C1=C2/[N]([Co+][OH])[C@H]([C@H](CC(N)=O)[C@@]2(C)CCC(=O)NC[C@@H](C)OP(=O)(O)O[C@H]2[C@@H](O)[C@@H](n3cnc4cc(C)c(C)cc43)O[C@@H]2CO)[C@]2(C)N=C(/C(C)=C3N=C(/C=C4N=C1[C@@H](CCC(N)=O)C/4(C)C)[C@@H](CCC(N)=O)[C@]\3(C)CC(N)=O)[C@@H](CCC(N)=O)[C@]2(C)CC(N)=O`, the cytotoxicity call in test [1] and in test [2] was “active” each time. In test [3], the growth inhibition call is “inactive”.
On to `C[C@@H]1CCCCO[C@@H](CN(C)Cc2ccc3c(c2)OCO3)[C@@H](C)CN([C@H](C)CO)C(=O)c2cc(NC(=O)Nc3ccc(C(F)(F)F)cc3)ccc2O1`, for which the cytotoxicity call in test [1] is “inactive”. Also, in test [2], the cytotoxicity call is “active”. Also, in test [3], the growth inhibition call was “inactive”.
As to `COC[C@H]1CNN1C(=O)c1cc(C)oc1C`, the cytotoxicity call in test [1] and in test [2] was “inactive” throughout. Besides, the growth inhibition call in test [3] is “inactive”.
Turning to `CC(=O)OCC(=O)C1CCC2C3CCC4=CC(=O)CCC4(C)C3CCC12C` (stereo unspecified), the cytotoxicity call in test [1] and in test [2] was “inactive” in each case. The growth inhibition call in test [3] was “inactive”.
For `COc1ccc([C@@H]([C@H](Cc2ccccc2)OC(C)=O)N2C[C@H]3[C@H]([C@@H](OC(C)=O)c4ccccc4)ON(C)[C@H]3[C@@H]2Cc2ccccc2)cc1`, in test [1], the cytotoxicity call is “inactive”. Further, the cytotoxicity call in test [2] was “active”. In addition, the growth inhibition call in test [3] was “inactive”.
As for `C[C@@H]1CN([C@@H](C)CO)C(=O)c2cc(NC(=O)c3ccncc3)ccc2O[C@@H]1CN(C)S(=O)(=O)c1cn(C)cn1`, the cytotoxicity call in test [1] and in test [2] was “inactive” each time. The growth inhibition call in test [3] is “inactive”.
Regarding `Cc1ccc(S(=O)(=O)N(C)C[C@H]2OCCCC[C@@H](C)Oc3ccc(NC(=O)CCC(F)(F)F)cc3C(=O)N([C@@H](C)CO)C[C@H]2C)cc1`, the cytotoxicity call in test [1] and in test [2] was “inactive” in each case. The growth inhibition call in test [3] was “inactive”.
In the case of `COc1ccc(CN(C)C[C@H]2Oc3ccc(NS(C)(=O)=O)cc3C(=O)N([C@@H](C)CO)C[C@H]2C)cc1`, the cytotoxicity call in test [1] and in test [2] was “inactive” each time. In test [3], the growth inhibition call was “inactive”.
As to `C[C@H]1CCCCO[C@H](CN(C)CC2CCCCC2)[C@@H](C)CN([C@@H](C)CO)C(=O)c2cc(NS(=O)(=O)c3ccccc3)ccc2O1`, the cytotoxicity call in test [1] and in test [2] was “inactive” each time. In test [3], the growth inhibition call was “inactive”.
On to `C[C@@H]1CCCCO[C@H](CN(C)C)[C@@H](C)CN([C@H](C)CO)C(=O)c2cc(NC(=O)CCCN(C)C)ccc2O1`, for which the cytotoxicity call in test [1] and in test [2] was “inactive” in each case. Besides, in test [3], the growth inhibition call is “inactive”.
In the case of `Cc1oc2ccccc2c1-c1csc(-c2ccccc2)n1`, the cytotoxicity call in test [1] and in test [2] was “inactive” throughout. The growth inhibition call in test [3] is “inactive”.
On to `C[C@@H]1CN([C@@H](C)CO)C(=O)c2cc(NC(=O)Nc3ccccc3)ccc2O[C@@H]1CN(C)Cc1ccc(Oc2ccccc2)cc1`, for which the cytotoxicity call in test [1] and in test [2] was “active” in each case. In test [3], the growth inhibition call was “inactive”.
